Reference: PMC4336329 (PLoS ONE, 2015)
In all, about 310,000 compounds went through this assay and about 2,200 (0.71%) showed an effect of 50% or more. The effect is printed as a negative number. The list shows a part of the results.

Target: human ether-à-go-go-related gene (hERG) potassium channel (human, UniProt Q12809)
Assay: primary screen, population patch clamp on CHO cells stably expressing hERG

human ether-à-go-go-related gene (hERG) potassium channel, sequence (Q12809 whole entry, looked up): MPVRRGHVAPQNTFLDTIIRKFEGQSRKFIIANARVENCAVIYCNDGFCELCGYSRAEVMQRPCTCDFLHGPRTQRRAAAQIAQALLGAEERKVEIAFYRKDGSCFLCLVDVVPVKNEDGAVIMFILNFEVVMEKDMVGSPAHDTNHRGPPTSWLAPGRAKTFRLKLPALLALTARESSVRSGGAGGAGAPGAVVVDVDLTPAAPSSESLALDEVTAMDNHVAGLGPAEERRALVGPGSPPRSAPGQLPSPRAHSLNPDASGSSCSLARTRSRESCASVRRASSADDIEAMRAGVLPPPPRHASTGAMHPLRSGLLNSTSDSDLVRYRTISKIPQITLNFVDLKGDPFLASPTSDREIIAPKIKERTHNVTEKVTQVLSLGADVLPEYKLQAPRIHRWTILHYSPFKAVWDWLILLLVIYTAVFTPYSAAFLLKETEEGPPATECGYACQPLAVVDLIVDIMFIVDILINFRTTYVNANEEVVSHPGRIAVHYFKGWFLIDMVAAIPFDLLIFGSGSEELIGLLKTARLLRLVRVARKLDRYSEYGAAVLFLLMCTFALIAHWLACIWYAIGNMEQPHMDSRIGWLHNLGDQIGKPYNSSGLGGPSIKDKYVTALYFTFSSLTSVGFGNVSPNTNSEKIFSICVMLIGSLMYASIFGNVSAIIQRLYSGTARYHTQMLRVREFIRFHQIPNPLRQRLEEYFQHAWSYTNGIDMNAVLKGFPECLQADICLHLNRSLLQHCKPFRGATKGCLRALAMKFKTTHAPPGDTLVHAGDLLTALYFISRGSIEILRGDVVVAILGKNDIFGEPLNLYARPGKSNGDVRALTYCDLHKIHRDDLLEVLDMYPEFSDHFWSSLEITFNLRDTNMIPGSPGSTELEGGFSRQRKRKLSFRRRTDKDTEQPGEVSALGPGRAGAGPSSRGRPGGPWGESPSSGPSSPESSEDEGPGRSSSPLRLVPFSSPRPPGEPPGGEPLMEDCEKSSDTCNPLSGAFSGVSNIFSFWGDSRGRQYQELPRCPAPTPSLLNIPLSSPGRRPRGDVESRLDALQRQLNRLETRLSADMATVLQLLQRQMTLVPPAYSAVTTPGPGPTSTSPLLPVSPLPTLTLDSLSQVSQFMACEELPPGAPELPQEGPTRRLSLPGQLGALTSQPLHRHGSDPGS

Row | Structure (SMILES) | hERG current change (%, negative = inhibition) at 1uM [%]
1 | Cc1ccc(Nc2nnc(SCC(=O)Nc3cccc(S(=O)(=O)NC4=NCCCCC4)c3)s2)cc1 | 8.15
2 | NC(=O)COc1ccc(/C=N\NC(=O)CC(=O)NCCc2ccccc2)cc1 | 18.4
3 | O=c1c2ccccc2nnn1CSc1nc2ccccc2[nH]1 | 0.482
4 | Cc1ccc(S(=O)(=O)N2CCC(C(=O)N3CCC[C@H]3C(=O)NCc3ccccc3)CC2)cc1 | 5.52
5 | COc1ccc2c(c1)[C@H]1[C@H](CO2)[C@H](c2ccccc2)[C@]2(C)C(=O)N(CC3CCCO3)CC(=O)N12 (stereo partly shown) | 13.4
6 | C(=N\N1CCN(c2ccccn2)CC1)/c1ccccn1 | 16.5
7 | Cc1nn(-c2ccc(C(=O)O)cc2)c(C)c1Cl | 10.3
8 | CCCCC(=O)NCCc1ccc(S(N)(=O)=O)cc1 | 7.69
9 | CCCn1c(N)c(C(=O)CSc2nnc3n2CCCCC3)c(=O)[nH]c1=O | 4.02
10 | CCOC(=O)C1=C(C)Nc2ccccc2N=C1NC(=O)Cc1ccc(Br)cc1 | 16.4
11 | Cl.NCCc1nnc(SCC(N)=O)o1 | 17.7
12 | COC(=O)c1cn(NC(=O)CC2CCCCC2)c(=O)c2ccccc12 | 2.58
13 | Cc1ccccc1NC(=S)N1CCN(Cc2ccc3c(c2)OCO3)CC1 | 1.84
14 | Cc1ccc(C(=O)NCCCNc2ccccc2[N+](=O)[O-])cc1 | -9.76
15 | CCc1c(C)sc(NC(=O)CC#N)c1C#N | 9.32
16 | CC(C)C(OC(=O)c1cc2c(s1)CCCCC2)C(=O)NC(N)=O (stereo not shown) | 2
17 | Cc1cc(C)c(NC(=O)CSCc2nc3sc(C)c(C)c3c(=O)[nH]2)c(Cl)c1 | -4.67
18 | Cn1ncc2c(NNC(=O)c3ccc(O)cc3)ncnc21 | 8.72
19 | COCCn1c(=O)[nH]c2cc(C(=O)N3CCN(c4ccc(Cl)cc4)CC3)ccc2c1=O | 10.6
20 | CN1C(=O)/C(=C2\SC(N3CCCCCC3)=NC2=O)c2ccccc21 | 7.94
21 | CNC(=S)N1N=C2c3ccccc3CCC2C1c1ccccc1Cl (stereo not shown) | 9.81
22 | CCc1ccc2oc(C(=O)NCCc3ccc(S(N)(=O)=O)cc3)cc(=O)c2c1 | 8.05
23 | COc1ccc(C(=O)NCCCOc2cccc(NC(C)=O)c2)cc1 | -4.65

Row | Structure (SMILES) | hERG current change (%, negative = inhibition) at 1uM [%]
24 | CCn1nnnc1-c1ccc(OC)c(S(=O)(=O)N2CCCCC2)c1 | 2.43
25 | Cc1cccc(OCC(=O)N=Nc2c(O)[nH]c3ccc([N+](=O)[O-])cc23)c1 | 8.03
26 | Cc1cc(NC(=O)Cn2c(=O)oc3ccccc32)no1 | 7.8
27 | O=C(NC1CCN(Cc2ccccc2)C1)c1cc(COc2ccc(F)cc2F)on1 (stereo not shown) | -11.9
28 | CN(C)c1ccc(NC(N)=S)cc1 | 5.42
29 | O=C(N/N=C/c1ccc(OC(=O)c2ccc([N+](=O)[O-])cc2)cc1)c1cccnc1 | 14.2
30 | C=CCn1c(SCC(=O)c2cc(C)n(C(C)COC)c2C)nc2sc(C)c(C)c2c1=O (stereo not shown) | -17.3
31 | Cc1ccc2ccc(C(Nc3cccc(C(F)(F)F)c3)c3cccnc3)c(O)c2n1 (stereo not shown) | 4.55
32 | CCOc1ccc2ccccc2c1/C=N/NC(=O)CNC(=O)Cc1ccccc1 | 13.4
33 | O=C(CSc1nnc(-c2ccccc2)n1-c1ccccc1)c1ccc[nH]1 | 15.3
34 | O=C(COc1ccc2ccccc2c1)Nc1nccs1 | 3.47
35 | Cc1nc(N2CCC(C)CC2)c2c(C)c(C(=O)Nc3ccc4c(c3)OCCO4)sc2n1 | 16
36 | Clc1ccc(C[n+]2cc(-c3ccccc3)n3c2CCC3)cc1.[Cl-] | 7.34
37 | COC(=O)c1sccc1NC(=O)Nc1ccccc1OC | 0.31
38 | C/C(=N\NC(=S)NCCc1ccccc1)c1cccc(Br)c1 | 6.88
39 | COc1ccc(S(=O)(=O)NC2CC2)cc1C(=O)N1CCOCC1 | 10.8
40 | CCOCCCNC(=O)C(NC(=O)c1ccc(=O)[nH]c1)c1ccccc1 (stereo not shown) | 0.993
41 | COc1cc(C)c(C)cc1S(=O)(=O)N1CCCCC1c1cccnc1 (stereo not shown) | 8.66
42 | COc1ccc(CNC(=O)C(C)OC(=O)c2cccs2)cc1 (stereo not shown) | 8.79
43 | CCOC(=O)C1(CC2CC2)CCN(C(=O)c2cc(C)nc3ccc(CC)cc23)CC1 | -2.83
44 | OCC1(CCOc2ccccc2)CCN(Cc2ccc3cccc(F)c3n2)CC1 | -36.4
45 | O=C(Nc1ccc(C(=O)O)cc1)/C(=C\c1ccc(F)cc1)NC(=O)c1ccco1 | 18.7
46 | O=C(O)c1ccc([N+](=O)[O-])c2c1C(=O)c1ccccc1C2=O | 17.8

Row | Structure (SMILES) | hERG current change (%, negative = inhibition) at 1uM [%]
47 | CN(C)C(=O)c1ccc(Oc2ccc(C(=O)N(C)C)cc2)cc1 | -3.28
48 | Cc1cc(NC(=O)Nc2cccc(Cl)c2)n(C(C)(C)C)n1 | 11.3
49 | CCNC(=O)N1CCN(C(=O)NCC)CC1 | 21.4
50 | O=C(CSc1nc(-c2ccc(F)cc2)cc(C(F)(F)F)n1)NCc1cccs1 | 18
51 | CNC(=O)NC(=O)CSc1nnc(-c2ccco2)n1-c1ccccc1 | 14.7
52 | CCOC(=O)N(C)c1ccc(C(O)(C(F)(F)F)C(F)(F)F)cc1 | 16.4
53 | Cc1cc(Cl)ccc1C(=O)C1CCCN(C(=O)c2ccoc2)C1 (stereo not shown) | 8.06
54 | CN=C(NC)SC1CC(=O)N(c2ccccc2)C1=O (stereo not shown) | 4.58
55 | [O-][Cl+3]([O-])([O-])[O-].c1ccc(-c2[nH]c[n+](CC3CO3)c2-c2ccccc2)cc1 (stereo not shown) | 10.1
56 | CCOc1ccc(OCC)c(S(=O)(=O)NCc2ccccn2)c1 | 6.21
57 | CC(=O)NC12CC3CC(CC(CC(=O)O)(C3)C1)C2 | -0.549
58 | COc1ccc(/C=C2/C(=N)N3N=C(CC(=O)N4CCCC4)SC3=NC2=O)cc1 | 10.5
59 | COc1ccc(C(=O)CSc2cc(C)[nH]c(=O)n2)cc1 | 27.1
60 | Cc1ccccc1Nc1scc(-c2ccc(Br)cc2)[n+]1-c1ccccc1C.[Br-] | 7.69
61 | CCCN1CCN(C(=S)Nc2ccccc2C(F)(F)F)CC1 | 8.34
62 | O=C(c1ccccc1F)N1CCN(c2cnn(-c3cccc(Cl)c3)c(=O)c2Cl)CC1 | 5.28
63 | CSc1sc(C(=O)NCC2CC2)cc1S(=O)(=O)C(C)C | 11
64 | Cc1nccn1CC(O)COC1CCCCC1 (stereo not shown) | 7.3
65 | CN(CC(=O)NCc1ccco1)CC(=O)Nc1c(Cl)cccc1Cl | -1
66 | CCCS(=O)(=O)N1CCN=C1SCc1ccc(F)cc1 | 11.2
67 | CN(Cc1cnn(C)c1)C(=O)C1CCC(=O)N(C2CCCCCC2)C1 (stereo not shown) | 7.91
68 | O=C(N/N=C\c1cccc(Br)c1)c1ccccc1-n1cccc1 | 15.8
69 | Cc1noc(C)c1COc1ccc(C(=O)N2CCN(S(=O)(=O)c3ccccc3)CC2)cc1 | -3.61

Row | Structure (SMILES) | hERG current change (%, negative = inhibition) at 1uM [%]
70 | CC(C)c1nnc(SCC(=O)N2CCOCC2)n1C | 11.4
71 | COc1ccccc1NC(=O)Cn1c2ccccc2c2nc3n(c(=O)c21)CCS3 | 9.03
72 | Cn1c(Cn2c(=O)sc3ccccc32)nnc1SCC(=O)Nc1cccc(F)c1 | 11
73 | Cc1ccc(NC(=O)CSc2nncc3ccccc23)cc1 | 1.16
74 | CS(=O)CSc1nc2c(cc1C#N)CCCC2 (stereo not shown) | -1.11
75 | Cc1oc(C(=O)O)cc1CSCc1cc(C(=O)O)c(C)o1 | 13
76 | CCS(=O)(=O)c1ccc(C(=O)Nc2ccccc2OC)c(Cl)c1Cl | 13.8
77 | CC(C)c1nc(CN2CCCCC2)cc(=O)[nH]1 | 10.3
78 | Cc1ccc(NC(=O)c2cccc(S(=O)(=O)N3CCN(c4ccc(F)cc4)CC3)c2)nc1 | 8.81
79 | COc1cc(NC(=O)C2CCCCC2)c(OC)cc1NC(=O)c1ccccc1 | 11.5
80 | Cc1ccc(Cn2ccc(=O)c(OCc3c(Cl)cccc3Cl)c2C)cc1 | 10.7
81 | CC(C)(CCO)NC(=S)NC1CC2C=CC1C2 (stereo not shown) | 1.78
82 | Nc1ccc(C(=O)c2ccc3c(c2)OCCO3)cc1N | 7.89
83 | O=C(CNc1cccc2ccccc12)N/N=C/C(Br)=C/c1ccccc1 | 12.1
84 | O=C(CC1C(=O)NCCN1C(=O)Nc1ccc(F)cc1)Nc1ccc(F)cc1 (stereo not shown) | 15.7
85 | O=C(Cc1c(F)cccc1Cl)N1CCOCC1 | 0.858
86 | Cc1cccc(N2C(=O)NC(=O)/C(=C/c3cc4c(cc3[N+](=O)[O-])OCO4)C2=O)c1 | 14.9
87 | NNc1nc(-c2ccccc2)nc(-c2ccccc2)c1Br | 7.7
88 | CC(=O)CCCCn1cnc2c1c(=O)n(C)c(=O)n2C | 15.4
89 | CC1CCCC(C)N1/N=C/c1ccccc1OC(F)F (stereo not shown) | 14.2
90 | O=C(Nc1nnc(-c2ccccc2F)s1)Nc1ccccc1F | 16.5
91 | COc1ccc(OCC(=O)N2CCN(C(=O)c3cccs3)CC2)cc1 | -20.3
